This is one part of the list. At the low end of the ranking the order means little.

The target of the experiment is SIX1-Q177R homeodomain (UniProt Q15475). The experiment in a line: universal protein binding microarray. Particulars: Universal all-10-mer PBM (8x60K, AMADID 030236), 300 nM GST-tagged protein, Alexa Fluor 488 anti-GST; buffer, salt, pH and temperature not stated; high values mean tight binding; most listed sequences are background and not binding sites; double strand, one strand shown.
In the case of CGCGTGAG, the binding signal is -0.106 E-score.

Take ACTTCGTG: the binding signal was determined as 0.238 E-score.

Turning to TAGCTTCA, the binding signal is -0.126 E-score.

With TTACAAAA, the binding signal is -0.109 E-score.

On to AGTGTTCC, for which the binding signal worked out at 0.334 E-score.

On to CATTTGGA, for which the binding signal worked out at 0.102 E-score.

In the case of GCTTTCAC, the binding signal is 0.00426 E-score.

ACAACCTG: the binding signal was 0.0376 E-score.

AAAGAGCG: the binding signal was -0.276 E-score.

Turning to GCTGTGTA, the binding signal was 0.223 E-score.

Regarding ACCTGATG, the binding signal is -0.0321 E-score.

Regarding GCCATGTA, the binding signal is -0.116 E-score.

Turning to ATTCAACA, the binding signal is -0.0267 E-score.

For the sequence AATGCACG, the binding signal was 0.101 E-score.

As to CAGGCTGA, the binding signal was -0.00611 E-score.

Take GGCCGGAC: the binding signal was -0.192 E-score.

In the case of ACACTCGA, the binding signal was 0.358 E-score.

In the case of ACGGCCAC, the binding signal is -0.099 E-score.

AAGCACCG: the binding signal worked out at 0.175 E-score.

Turning to ACCACGTA, the binding signal was -0.0737 E-score.

CGTTGATC: the binding signal is -0.185 E-score.

As for CAACAGCG, the binding signal was found to be 0.00367 E-score.

In the case of CATACTAA, the binding signal is -0.0276 E-score.

For AAAATCGT, the binding signal is -0.192 E-score.

As for CCGTGTAA, the binding signal turned out to be 0.44 E-score.

As for AGACTTGA, the binding signal is -0.176 E-score.

On to CGAAGTTC, for which the binding signal is -0.29 E-score.

For the sequence AGTAACAG, the binding signal was -0.0285 E-score.

As to AGTTCGCC, the binding signal was -0.294 E-score.

CCAGTGCC: the binding signal is 0.0612 E-score.

As for GTATTAAA, the binding signal was -0.0315 E-score.

Turning to CTGCAGTA, the binding signal is -0.173 E-score.

For ACCGACGT, the binding signal came to 0.00033 E-score.

Regarding CAAGCCGG, the binding signal was -0.00524 E-score.

Consider ACGCCCGG, for which the binding signal is 0.206 E-score.

For AAAACGTA, the binding signal is -0.0459 E-score.

With CGTGAAAC, the binding signal stood at 0.0541 E-score.

For GGAGAGGA, the binding signal is -0.0525 E-score.

With ATAGCCGC, the binding signal was -0.189 E-score.

As to ATCTTGAC, the binding signal was -0.0828 E-score.

Take AACCCCCG: the binding signal is 0.244 E-score.

For AGAACGTA, the binding signal is -0.226 E-score.

On to GACATTAA, for which the binding signal is -0.141 E-score.

Consider CGGCGCCG, for which the binding signal is -0.0454 E-score.

In the case of CAAAGACG, the binding signal was -0.212 E-score.

As to CGGTGACG, the binding signal was 0.083 E-score.

Regarding AGGTCGGC, the binding signal is -0.0277 E-score.

On to GAGGGAGC, for which the binding signal is -0.109 E-score.

For the sequence ATCACAAA, the binding signal was -0.157 E-score.

For AGGTTATA, the binding signal is -0.0318 E-score.

Turning to AACAATGA, the binding signal is -0.0671 E-score.

With ACGGACGT, the binding signal turned out to be 0.0377 E-score.

Take ACTCCGGA: the binding signal was 0.204 E-score.

For the sequence ACACGACG, the binding signal amounted to 0.368 E-score.

Regarding GCGAACGA, the binding signal is -0.139 E-score.

For CCGCTCAG, the binding signal turned out to be 0.0474 E-score.

Take ATTGGTCG: the binding signal was -0.16 E-score.

With AGGTGAGA, the binding signal was -0.103 E-score.

For ATCGGTTC, the binding signal is -0.13 E-score.

Regarding ATGTGTCA, the binding signal stood at 0.253 E-score.

ATTATCTC: the binding signal is -0.172 E-score.

With CTCCAACA, the binding signal was determined as 0.206 E-score.

On to TGGCCCCA, for which the binding signal is -0.141 E-score.

For the sequence GCCGGGCA, the binding signal is -0.0693 E-score.

Take CAGCGGTA: the binding signal is -0.0532 E-score.

On to AAGTCGGT, for which the binding signal is -0.191 E-score.

Regarding CGGAGTGC, the binding signal amounted to 0.0207 E-score.

Consider ACCCGTGA, for which the binding signal was 0.0625 E-score.

Turning to CTATAAAG, the binding signal was -0.093 E-score.

As to CCTAAGAA, the binding signal is -0.132 E-score.

For the sequence ACCATCCC, the binding signal was found to be 0.0967 E-score.

Turning to GGCGTAAC, the binding signal stood at 0.0084 E-score.

Turning to ACCAGTCC, the binding signal is -0.0974 E-score.

ACACGTAC: the binding signal stood at 0.353 E-score.

In the case of CAATTCCG, the binding signal was -0.041 E-score.

For CCAGTGTC, the binding signal stood at 0.431 E-score.

In the case of ACTGGCGA, the binding signal came to 0.0467 E-score.

For the sequence CGGTCTCA, the binding signal was -0.123 E-score.

As to ACCACTAG, the binding signal amounted to 0.0756 E-score.

For the sequence CAGCTCCA, the binding signal was -0.11 E-score.

AATTTACT: the binding signal is 0.0362 E-score.

As to CCCAAACG, the binding signal was 0.169 E-score.

Consider CACCGTTC, for which the binding signal is 0.324 E-score.

On to ACGATTTC, for which the binding signal was -0.106 E-score.

Regarding GTCGTGGA, the binding signal was -0.0282 E-score.

On to GACTCTTA, for which the binding signal was 0.0345 E-score.

Regarding CATAACGC, the binding signal stood at 0.0201 E-score.

Regarding CGATATCC, the binding signal was 0.132 E-score.

On to GGTACTTA, for which the binding signal was -0.0133 E-score.

With CGCCTTGC, the binding signal is -0.0564 E-score.

Turning to ATAGAAAG, the binding signal is -0.0414 E-score.

In the case of CAGTACAA, the binding signal came out at 0.0924 E-score.

On to CGTGTGTC, for which the binding signal came out at 0.289 E-score.

As for CACTGCGG, the binding signal worked out at 0.154 E-score.

In the case of ACCACTCC, the binding signal worked out at 0.0931 E-score.

Regarding CGGAATCC, the binding signal is -0.00467 E-score.

In the case of AAAGGAGA, the binding signal is -0.167 E-score.

TAGTGTCA: the binding signal stood at 0.454 E-score.

For ATTAACGG, the binding signal was found to be 0.0055 E-score.

Regarding AGTAATTA, the binding signal is -0.0481 E-score.

As to CATTCTAG, the binding signal is -0.0463 E-score.

In the case of ACCTCGAT, the binding signal was 0.138 E-score.

AGTGTAAA: the binding signal was found to be 0.402 E-score.

For CTCTGCAA, the binding signal was -0.147 E-score.

Regarding AGCCCATA, the binding signal was -0.0225 E-score.

With CTCTGGGA, the binding signal is -0.0853 E-score.

With CCAAGCAC, the binding signal was 0.142 E-score.

Turning to CGCATACC, the binding signal is -0.0375 E-score.

On to CCGAAACA, for which the binding signal worked out at 0.0245 E-score.

For CGGGAAGC, the binding signal was -0.027 E-score.

As to ATTAACGC, the binding signal is -0.0649 E-score.

On to GTCGTAAA, for which the binding signal turned out to be 0.00539 E-score.

On to AGTATGAC, for which the binding signal was 0.094 E-score.

Turning to GTCGCGAA, the binding signal turned out to be 0.0937 E-score.

As to AAAGCGGC, the binding signal was -0.248 E-score.

CCTCCGCA: the binding signal was -0.0882 E-score.

With GGATAAAC, the binding signal stood at 0.169 E-score.

With AGCAGATC, the binding signal was -0.0205 E-score.

Regarding CGAAATCC, the binding signal was -0.103 E-score.

For AGGAAGAA, the binding signal was -0.182 E-score.

As to AAAGAGGT, the binding signal is 0.101 E-score.

With AAAGCATA, the binding signal was -0.218 E-score.

GCGTTTAC: the binding signal is 0.16 E-score.

For the sequence ATCATCAC, the binding signal amounted to 0.0203 E-score.

Regarding AGCACGAG, the binding signal was -0.0568 E-score.

As for AATCCCGA, the binding signal turned out to be 0.0834 E-score.

Take AAATGCGC: the binding signal is -0.167 E-score.

Regarding GCCAAGCA, the binding signal was -0.195 E-score.

Take ATTTCCTA: the binding signal was 0.00118 E-score.

TAGTTCCA: the binding signal is -0.179 E-score.

In the case of GTGCGTCA, the binding signal is 0.104 E-score.

In the case of CGGCAGAA, the binding signal was -0.254 E-score.

Consider AACTATAA, for which the binding signal was -0.259 E-score.

Turning to ATGGTTAC, the binding signal is -0.0455 E-score.

For ACGCATAC, the binding signal was 0.0588 E-score.

For AAGCATAG, the binding signal was -0.318 E-score.

CTGGAACC: the binding signal is -0.062 E-score.

Turning to ACTACCCG, the binding signal stood at 0.204 E-score.

Take CCGGCGCG: the binding signal amounted to 0.0543 E-score.

In the case of GGCCTGAA, the binding signal is -0.152 E-score.

For the sequence AAATAATA, the binding signal was -0.151 E-score.

With TGCTGACA, the binding signal was found to be 0.122 E-score.

Turning to AAGCGTAA, the binding signal is -0.0252 E-score.

For the sequence GACCATGC, the binding signal is -0.0977 E-score.

AATCAAAC: the binding signal was -0.0519 E-score.

For AAGTTCCA, the binding signal was -0.256 E-score.

Take AGTACCGA: the binding signal was found to be 0.00653 E-score.

On to ACATGCCG, for which the binding signal is -0.0193 E-score.

As to AACAGAAA, the binding signal was -0.211 E-score.

With GCTTGCAC, the binding signal was 0.00092 E-score.

As to CCTTTAGC, the binding signal is -0.152 E-score.

In the case of GAATCCTC, the binding signal was -0.118 E-score.

As to CTAAGATC, the binding signal is -0.159 E-score.

Consider CCCGCCGC, for which the binding signal was 0.184 E-score.

For CCGTGCCG, the binding signal was 0.0677 E-score.

On to CCCCTGTA, for which the binding signal is 0.102 E-score.

On to AATCTGCT, for which the binding signal is -0.334 E-score.

ACTTGGCA: the binding signal was -0.0568 E-score.

Regarding AGCCGTAA, the binding signal was -0.209 E-score.

Regarding ACGTACAT, the binding signal turned out to be 0.00483 E-score.

With ATAAATGG, the binding signal is -0.00499 E-score.

Take CGAGAGTC: the binding signal is 0.00991 E-score.

Regarding ATTCTCGC, the binding signal is -0.152 E-score.

AAGGAATC: the binding signal was found to be 0.0436 E-score.

Regarding AGGTGAGC, the binding signal is -0.119 E-score.

With CCTTGAGC, the binding signal worked out at 0.00841 E-score.

As to CGCAGACC, the binding signal is -0.176 E-score.

AAGGCGGT: the binding signal stood at 0.0185 E-score.

Consider AGTCGTTC, for which the binding signal was -0.0763 E-score.

For the sequence GCACTGAC, the binding signal was -0.0184 E-score.

Take GTTACTTA: the binding signal was found to be 0.064 E-score.

As for TTCACAAA, the binding signal worked out at 0.0659 E-score.
